Assay results as given in PubChem BioAssay AID743255 (National Center for Advancing Translational Sciences (NCATS), 2014).
In all, about 390,000 compounds went through this assay and about 910 (0.23%) were called active. Another 5% or so got no clear call; they are omitted. Calls follow the shape of the dose curve; as a rule, active = well fitted inhibition curve with a large enough effect; inconclusive = small, poorly fitted or top-dose-only effect; inactive = no such curve, though single readings can be large or run the other way. The list shows a part of the results, in another mix than the full data.

Biological target: Ubiquitin carboxyl-terminal hydrolase 1 (Homo sapiens) (UniProt O94782)
Assay: Inhibitors of USP1/UAF1: Primary Screen; also: nearly all actives have a fitted effect of over 60% in size
Details: recombinant USP1/UAF1, Ub-Rhodamine cleavage fluorescence; activity change, negative = inhibition: at 57.1 µM (top of the series)
Outline: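 USP1/UAF1 complex at 1 nM was preincubated with compound for 15 min at room temperature, then Ub-Rho substrate (150nM final) was added. Fluorescence (480/540 nm) was read kinetically, 6 reads every 60 seconds.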
% is scaled to controls: 0 for no effect and ±100 for the full control effect; potency is read from the fitted curve at half-maximal effect.

Chain of UniProt O94782 (O94782 whole entry, looked up): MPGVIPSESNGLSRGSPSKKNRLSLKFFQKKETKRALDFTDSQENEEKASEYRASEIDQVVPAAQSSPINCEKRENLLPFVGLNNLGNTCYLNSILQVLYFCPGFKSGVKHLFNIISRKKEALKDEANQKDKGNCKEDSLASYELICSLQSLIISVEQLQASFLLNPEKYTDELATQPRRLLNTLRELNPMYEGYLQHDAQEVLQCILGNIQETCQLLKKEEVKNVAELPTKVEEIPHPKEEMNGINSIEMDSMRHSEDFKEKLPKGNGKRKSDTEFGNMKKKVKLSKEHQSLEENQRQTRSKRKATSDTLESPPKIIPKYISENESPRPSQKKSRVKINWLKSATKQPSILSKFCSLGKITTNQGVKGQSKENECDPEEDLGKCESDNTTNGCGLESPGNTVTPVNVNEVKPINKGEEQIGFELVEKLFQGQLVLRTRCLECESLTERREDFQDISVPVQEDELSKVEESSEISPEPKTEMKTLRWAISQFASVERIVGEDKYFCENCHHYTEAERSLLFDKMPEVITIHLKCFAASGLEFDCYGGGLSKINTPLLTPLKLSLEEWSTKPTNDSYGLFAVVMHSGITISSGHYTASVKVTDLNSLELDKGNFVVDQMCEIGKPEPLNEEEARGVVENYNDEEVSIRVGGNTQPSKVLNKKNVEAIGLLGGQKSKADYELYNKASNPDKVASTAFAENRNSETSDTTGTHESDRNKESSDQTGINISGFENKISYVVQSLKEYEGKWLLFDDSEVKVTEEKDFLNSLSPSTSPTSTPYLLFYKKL

Row | Compound | activity change, negative = inhibition | Potency
1 | CCN(CC)C(=O)Cn1c(=O)n(CCCCCC(=O)Nc2ccccc2)c(=O)c2sccc21 | inactive: -14.2% | 
2 | O=C(C1CCCCC1)N1C[C@@H](n2cc(-c3ccc(F)cc3)nn2)[C@H](O)C[C@@H]1c1ccc(Cl)cc1 | inactive: -24.8% | 
3 | CCn1c(C)c(C)c2cc(C(=O)NCCCN3CCCCC3)ccc21 | inactive: -2.29% | 
4 | O=c1oc2cc(O)ccc2cc1-c1nc2c(s1)CCc1ccccc1-2 | inactive: 242% | 
5 | CCc1nc2ccc(C(=O)N3CCN(c4cccc(C)c4C)CC3)cc2nc1CC | inactive: -19.9% | 
6 | Cc1nc2nc(SCC(=O)O)nn2c(C)c1Cc1c(F)cccc1Cl | inactive: -8.41% | 
7 | CC(C)(C)OC(=O)C[C@H]1C/C=C\C[C@@H](CC(=O)N(CCO)Cc2ccccc2)C(=O)N[C@@H](Cc2ccccc2)COC1=O | inactive: -22.8% | 
8 | C[C@H]1CN([C@@H](C)CO)C(=O)CCCn2nncc2CO[C@@H]1CN(C)Cc1ccc2c(c1)OCCO2 | inactive: -18.6% | 
9 | C[C@H]1CN([C@@H](C)CO)C(=O)CCCn2nncc2CO[C@@H]1CN(C)Cc1cccc(C(F)(F)F)c1 | inactive: 7.31% | 
10 | COc1ccc(OCC(=O)NCC(c2ccc(OC)cc2)N2CCCCC2)cc1 (centres undefined) | inactive: -17.6% | 
11 | Cc1ccc(Cn2c(=N)c(S(=O)(=O)c3ccc(C)cc3)cc3c(=O)n4ccccc4nc32)cc1 | inactive: 51.7% | 
12 | COC(C[C@H]1O[C@H]1C(=O)[C@@H](C)OCc1ccccc1)OC | inactive: -22.4% | 
13 | CCOc1ccc(-c2nonc2NC(=O)c2ccco2)cc1 | inactive: -26.3% | 
14 | COc1ccccc1NC(=O)CCCc1nnc2n(C)c(=O)c3sccc3n12 | inactive: 11.3% | 
15 | CCOc1ccc(CCNC(=O)c2ccc3c(c2)c(C)c(C)n3Cc2ccccc2)cc1OCC | inactive: 119% | 
16 | COc1cc(/C=C(\C#N)C(=O)c2c[nH]c3ccccc23)cc(OC)c1O |  | active: 28.2 µM
17 | Cc1ccc(F)c(NC(=O)/C(C#N)=C(\O)c2ccc(C(C)(C)C)cc2)c1 |  | active: 22.4 µM
18 | CN1CCS/C1=C/C=C1\SC(=S)N(CC(=O)O)C1=O |  | active: 25.1 µM
19 | Cc1ccc(-c2nn(-c3ccccc3)cc2/C=C2\SC(=S)N(CCCCCC(=O)O)C2=O)o1 |  | active: 7.08 µM
20 | Cc1ccccc1-c1ccc(/C=C2/SC(N3CCOCC3)=NC2=O)o1 | inactive: 36.2% | 
21 | Cc1ccc(C(=O)N/C(=C\c2ccc(-c3ccccc3[N+](=O)[O-])o2)C(=O)NCCCN(C)C)cc1 |  | active: 28.2 µM
22 | COc1ccccc1NC(=O)c1sc2nc(C)c(C(=O)Nc3ccc(C)cc3C)c(-c3ccco3)c2c1N | inactive: 16.6% | 
23 | O=C1N[C@H](Cc2ccccc2)COC(=O)[C@H](Cc2ccc(F)cc2)CC/C=C/C[C@H]1CC(=O)N(CCO)Cc1ccccc1 | inactive: -5.79% | 
24 | CC(C)c1ccc(OCC(O)CN2CCN(c3ccccc3)CC2)cc1 (centres undefined) | inactive: -15.1% | 
25 | COc1cc(OC)cc(-c2cc3nc(C)c(CCC(=O)NCc4ccccc4)c(C)n3n2)c1 | inactive: -19.5% | 
26 | C[C@H](CO)N1C[C@H](C)[C@@H](CN(C)S(=O)(=O)c2ccc(Oc3ccccc3)nc2)OCc2cnnn2CCCC1=O | inactive: -10.2% | 
27 | C#Cc1ccc([C@H]2C=C(C(=O)OCC=C)O[C@@H](OCCCCO)C2)cc1 | inactive: -16.8% | 

Row | Compound | activity change, negative = inhibition | Potency
28 | CCN1C(=O)/C(=C/C=C2/SCCN2C)SC1=S |  | active: 25.1 µM
29 | O=c1oc2c(O)cccc2cc1-c1nc2ccccc2[nH]1 | inactive: 33.1% | 
30 | O=C(O)CCCCn1c(SCC(=O)Nc2ccccc2C(F)(F)F)nc2ccsc2c1=O | inactive: -3.26% | 
31 | C[C@@H]1CN([C@@H](C)CO)C(=O)CCCn2nncc2CO[C@@H]1CN(C)S(=O)(=O)c1ccc2c(c1)OCCCO2 | inactive: -29% | 
32 | Oc1[nH]c2ccccc2c1N=Nc1ccccc1Cl | inactive: 52.6% | 
33 | CCN(CC)c1ccc2cc(-c3nc(-c4cc5ccccc5oc4=O)cs3)c(=O)oc2c1 | inactive: 42.5% | 
34 | O=C(C[C@@H]1C/C=C\C[C@H](NC(=O)OCC2c3ccccc3-c3ccccc32)C(=O)OC[C@H]2CCCN2C1=O)N[C@H](CO)Cc1ccccc1 | inactive: -29.1% | 
35 | C=CC[C@@H](CC(=O)N[C@H](CO)Cc1ccccc1)C(=O)N[C@H](COC(=O)[C@@H](CC=C)Cc1ccc(F)cc1)Cc1c[nH]c2ccccc12 | inactive: -23% | 
36 | C[C@@H]1C=C(C(=O)O)O[C@H](OCc2ccc(CO)cc2)C1 | inactive: -29.6% | 
37 | C[C@@H]1CN([C@@H](C)CO)C(=O)CCCn2nncc2CO[C@H]1CN(C)C(=O)c1ccccc1 | inactive: -16.3% | 
38 | O=C(NC1CC1)C1=C[C@H](c2ccccc2)C[C@H](OCc2ccc(CO)cc2)O1 | inactive: 3.35% | 
39 | C[C@@H]1CN([C@@H](C)CO)C(=O)CCCn2cc(nn2)CO[C@H]1CN(C)C(=O)c1cc(-c2ccccc2)on1 | inactive: -18.7% | 
40 | C[C@H](CO)N1C[C@H](C)[C@@H](CN(C)S(=O)(=O)c2ccc(-n3cccn3)cc2)OCc2cn(nn2)CCCC1=O | inactive: -18.8% | 
41 | NC(=O)C(=O)N/N=C/c1c2ccccc2cc2ccccc12 | inactive: 34.6% | 
42 | O[C@H]1CN(CC2CCCCC2)[C@@H](c2ccccc2)C[C@@H]1n1cc(C2CC2)nn1 | inactive: -4.35% | 
43 | C[C@H]1CCC[C@@]2(O[C@@H](CCO)C[C@H](O)[C@H]2O)O1 | inactive: -22.5% | 
44 | O=c1[nH]c(Nc2ccccc2)cc2ccccc12 |  | active: 2.51 µM
45 | COC(C/C=C\C(=O)[C@H](C)OCc1ccccc1)OC | inactive: -24.1% | 
46 | CC(C)(C)S(=O)(=O)N1C[C@H]2CC/C=C\C/C=C\2[C@@H]1CCO | inactive: -25.7% | 
47 | C[C@@H]1CN([C@@H](C)CO)C(=O)CCCn2nncc2CO[C@@H]1CN(C)C(=O)C1CCCCC1 | inactive: -12% | 
48 | C=CC[C@H](CC(=O)N[C@H](CO)Cc1ccccc1)C(=O)N[C@@H](COC(=O)[C@H](CC=C)CC(=O)OC(C)(C)C)Cc1c[nH]c2ccccc12 | inactive: -13.3% | 
49 | Cc1ccc(NC(=O)c2c(C(=O)Nc3ccccc3)sc3nc(C)cc(=O)n23)cc1 | inactive: -19.2% | 
50 | N#C/C(=C\c1ccc(-c2ccc(Cl)c(C(=O)O)c2)o1)c1nc2ccccc2[nH]1 |  | active: 31.6 µM
51 | O=C1S/C(=C\c2ccc(N3CCOCC3)o2)C(=O)N1Cc1c(F)cccc1Cl |  | active: 3.98 µM
52 | CC(=O)C[C@H](O)CC(=O)[C@@H]1OC(=O)CCCCC/C=C/Cc2ccccc21 | inactive: 11.5% | 
53 | C[C@H](CO)N1C[C@H](C)[C@@H](CN(C)S(=O)(=O)c2ccccc2)Oc2c(NC(=O)Nc3ccc(C(F)(F)F)cc3)cccc2C1=O | inactive: -31.6% | 
54 | CCOC(=O)CN1C(=O)N[C@@H](CCc2ccccc2)[C@@H](C(=O)OC)[C@H]1C | inactive: -9.12% | 
